Whole data set: some 33,000 sequences, median “E-score (dimensionless, -0.5 to 0.5)” near -0.058, cut for the highest 2% near 0.35. The list shows a part of the results.
System: MvaT
Assay: PBM 8-mer E-score (mean of HK and ME arrays) (E-score (dimensionless, -0.5 to 0.5)); higher = stronger relative binding preference; most listed sequences are background and not binding sites
Procedure, shortened: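 Reported values are rank-based E-scores, taken as the mean of two universal arrays and parsed with a custom script. Each 8-mer score falls between -0.5 and 0.5. The arrays, ME and HK, were double-stranded 60-mers with a constant 25-mer primer region and a variable 35-mer region covering all 8-mers. They were probed, by an earlier protocol, with full-length P. aeruginosa MvaT carrying an N-terminal glutathione S-transferase fusion.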

Sequence | PBM 8-mer E-score
TATCCTAA | 0.149
TAGTAAAA | 0.315
ATCAAGTA | 0.105
CCATACGA | -0.0225
ACAATCTG | 0.0542
AGTATGTA | 0.254
GGCGCTGA | -0.235
ACATGTCG | -0.0173
ATCATGGC | -0.143
CCGCCACG | -0.292
CACCGTTC | -0.144
ACTATGGG | -0.0441
ACTTGGTC | -0.0769
GTTTTCAA | 0.148
GGAGCATA | -0.0616
ACTGCCAC | 0.0158
AAGCATAC | 0.0103
AGTCGTCC | -0.138
CATACAGG | -0.0244
AGATGTAA | 0.178
CCCCTGAG | -0.318
ATAAAGCA | 0.157
ATATCAAG | 0.211
CGGTCCAA | -0.0312
CTATCATC | 0.0196

Sequence | PBM 8-mer E-score
ACTGAGGG | -0.144
CGTGATCA | -0.137
AGGAACTA | 0.111
ATGCCAGG | -0.109
ATAGGAAG | -0.0487
TCCACGGA | -0.125
ATATGCCC | 0.127
AATCGTTA | 0.12
GTTTTGAA | 0.149
GGCGGTAA | 0.0073
ATTAGGAG | 0.0285
CCGATAAC | 0.0959
ACAGTGAT | 0.174
AATGCGGG | -0.119
ATGGAAGC | -0.192
CAGACATC | -0.079
GGCGTACC | -0.259
CCAAGTGA | -0.17
ATCGCACC | -0.0834
AAGGTTCC | -0.201
CGGAAAGC | -0.192
CATAGATA | 0.0663
TTCGCGAA | -0.0337
TCGATACA | 0.0965
AAACTTAG | 0.225

Sequence | PBM 8-mer E-score
ATCTGCCC | -0.268
GTATTAAA | 0.313
CAGGCTGC | -0.123
CCTAACAA | 0.0562
CATCGCTC | -0.227
GGGTCCGA | -0.293
TAACGGTA | 0.204
TACTTTGA | 0.226
GGATCGCA | -0.168
CCAGGAGA | -0.165
CATGGAGA | -0.061
CCTGATAA | 0.139
CCCCTAAA | -0.147
CGTCTCTA | -0.163
ATATGCTA | 0.256
GCAAATAA | 0.325
AACCGTCA | -0.0936
CTGGCGAC | -0.189
AACCTTCG | -0.219
TTGTCAAA | 0.147
GTACTCAC | -0.117
ATTCCCAG | -0.0249
CCTTCAAA | -0.128
AAGTAAAG | 0.234
TAGGTAGA | -0.0321

Sequence | PBM 8-mer E-score
CTCCGATA | -0.118
AGTTGTAA | 0.331
ATTTTATA | 0.366
CCGGTGAC | -0.199
ACTAGCAC | -0.126
ATGGTGAG | 0.0089
GACCAGTC | -0.128
AGGACAGA | -0.179
GCTTCTAC | -0.0639
AGCAATGG | -0.0818
CTTGAATA | 0.146
ACGCTGCT | -0.0865
GAACTAGA | 0.00473
GGAGGAGA | -0.298
CAAATTGC | 0.126
CCTCCCAA | -0.142
ACCCTCGT | -0.236
GGCTAGTA | -0.0824
AGTTAGGA | 0.17
ACTTCCCG | -0.0846
ACGTATAC | 0.136
CTTTCCAC | 0.0451
AATTGCGC | 0.159
CATGGTAA | 0.108
AGTTAGTC | 0.141

Sequence | PBM 8-mer E-score
ACGCAAGT | -0.0978
AGGAATGA | -0.0938
GTGCGACA | -0.00395
CACTTCCG | 0.0768
CGTATCGA | -0.147
CGTGGGCA | -0.277
AACATTGA | 0.167
CCACTCGA | -0.278
CGTGAGAA | 0.0476
CGCGGGAC | -0.281
CATGGCAC | -0.112
CCGGTTAG | -0.0685
CGGCGCAG | -0.0768
ACCCTCAT | -0.0973
AGTACCAC | -0.0361
GCTAGTGA | -0.23
GCCGATAC | -0.166
CGAAATGC | -0.0574
CACGCATC | -0.154
AACGAGTG | -0.0643
TAACAGGA | 0.223
ATACTCCG | 0.125
TACTGTCA | 0.0629
AGGATTCA | -0.067
CAACAATA | 0.289

Sequence | PBM 8-mer E-score
ACCCCCCT | -0.302
CGCCTAAC | -0.126
CTGGAGTC | -0.179
CTCCAAGA | -0.0889
CTACCGAA | -0.0593
ATGCACTC | -0.108
ACAGATAG | -0.0481
AACTTCTC | 0.218
CCGATTTC | -0.0956
CCCCGCCC | -0.247
ATACCAAA | 0.243
AACAGTAT | 0.235
ACTTATGG | 0.206
CCATTGAG | -0.216
GCTGGGTA | -0.0347
CTTGAGAA | -0.0449
GGAGTTTA | 0.164
AACGTTCC | -0.0472
ATTTCGTA | 0.122
AAAGTTAA | 0.353
CTGCCGCC | -0.273
GTTGCCTA | 0.0602
CAAGTTGA | 0.0252
GACCATCA | -0.146
ATTGTGTC | 0.157

Sequence | PBM 8-mer E-score
CAATTCTC | -0.0483
GATCTCGC | -0.0777
AAGTAAGT | 0.309
AACGGCAG | -0.19
ACTTATAC | 0.326
GAGCGCTC | -0.125
ATACCGCG | 0.0191
ATTTATTG | 0.379
ATAGAAAG | 0.197
GTTGGACA | -0.106
AGTCGGAC | -0.0474
TACTATGA | 0.161
CGTACCTC | -0.255
ATTCGGCG | -0.0422
AGGCGTAT | -0.0751
AAATGAGC | -0.015
ATATCCAC | 0.232
ACATGGGG | -0.0776
CCCGGCGG | -0.27
CGTCGTCC | -0.148
GCTAACAC | -0.0487
CAACGCAA | 0.077
GGCGAACA | -0.017
AGCCTCCT | -0.31
ACCCTAGG | -0.173

Sequence | PBM 8-mer E-score
AATGGCTA | 0.0987
CCCATAAG | -0.0126
AGGCGAGC | -0.246
CACCGACG | -0.227
GTTAGCAA | 0.0716
GGGTATGA | 0.0144
CCAAAAGA | -0.187
CCAACCGG | -0.224
AGTTCCTC | -0.0593
TGGACCAA | -0.127
ATAGACAC | 0.0711
CACCATCC | -0.0843
CATCACAC | 0.0723
AGATTGCT | -0.157
AGATACAC | 0.133
ACCGGGCT | -0.233
GCCGATCA | -0.201
GATTCGAA | 0.0542
ACTAATTA | 0.45
CATGCAGG | -0.119
CTTCGCCC | -0.271
AGTGATGC | 0.0354
GTTGAATA | 0.233
AAATCAGC | 0.0494
GAACAATC | -0.0504

Sequence | PBM 8-mer E-score
ATATGAAC | 0.269
CCAGTGAC | -0.2
ACCGGCAT | -0.0557
CAGATTGG | -0.162
GTCACGGA | -0.109
AGAGAGCG | -0.217
CACCAAGC | -0.113
ATGGGGGC | -0.328
CAGTCCCC | -0.182
GGTCTGTA | -0.219
AAGAAGTA | 0.175
AAGATACA | 0.139
ATATGGGG | -0.0181
GTACGGCA | -0.135
GCGGACCC | -0.209
CAACGGAA | -0.0283
CACAAATG | -0.0167
ACTAGACG | -0.119
CTCGCACC | -0.0422
AACCAGGC | -0.183
TCGTGAGA | -0.00942
TCAAGTCA | -0.0127
AAAGGCGC | -0.118
GTCCGGCA | -0.135
ATTAAAAA | 0.321

Sequence | PBM 8-mer E-score
AGGCAACC | -0.0281
ACGTTTTC | -0.0292
GTCTGAAC | -0.149
AAGAATTC | 0.245
AAGGCGAA | -0.0329
ACTGTAGG | -0.076
ACGAAGGA | -0.0811
TCTTAAAA | 0.154
CTTAGTAA | 0.178
GTTATGGA | 0.184
AAAGGTCG | -0.155
TCATTAAA | 0.228
CTTACGTC | -0.112
TCCATGCA | -0.0438
CACTCCGA | -0.123
ACTCTACA | 0.145
AGCACGCT | -0.262
AAGCACCA | -0.0658
AATGCCCG | -0.164
ACCAATAG | 0.0173
CCTCTGCC | -0.102
ATTTGCCG | 0.0909
CTCTCCTA | -0.116
AACATACG | 0.182
AGTGCTTG | -0.187

Sequence | PBM 8-mer E-score
CGAATGTC | -0.16
AACAGCGA | -0.152
ATGAACAA | 0.187
GAGGCTAC | -0.292
AATAGGCA | -0.0295
CGAGTTTC | -0.0582
AGTGGTTG | 0.0398
ACGGCGTG | -0.291
GAAGGACC | -0.198
GAATAGCC | 0.0144
ACCTTACC | -0.0818
TAGCAACA | 0.0816
CCGCTAGC | -0.139
GGACGCGA | -0.0753
AGCTGTAT | 0.127
GCTGTACA | -0.0468
AATTTGCG | 0.176
GAACATTC | -0.0126
ATGTGGGA | 0.0305
CTTGACAA | 0.113
GAGGCGAA | 0.0459
CGAGGGTC | -0.343
ACATTAGG | 0.0719
GGCCTGAC | -0.347
ACTGGAAA | 0.131

Sequence | PBM 8-mer E-score
CACTGGAA | -0.13
GACAAGCA | -0.183
ATTCTTTC | 0.159
GAGCGAGA | -0.0584
AAGCTCGT | -0.106
CGAGCCTC | -0.261
CCGCAGGA | -0.0944
ACCGAAGC | -0.0986
ATCGCGCG | 0.0315
ACGAAGGC | -0.28
ACGCCTCT | -0.21
CGCCGATA | 0.0735
GATCATCA | -0.0598
AGGCGACC | -0.224
GCCAGCCC | -0.335
CCGTAAAC | -0.104
CCATGGAC | -0.187
ACAGAAGT | 0.106
ATCGATCA | 0.204
TCACCTGA | -0.083
TGTGTTAA | 0.312
AGCGAGGG | -0.261
CGAAAGAA | 0.0883
AGTGCGAC | -0.0683
ACCCGAGG | -0.137

Sequence | PBM 8-mer E-score
TACTGGGA | -0.00513
CTCGTTGC | -0.187
CCATTATA | 0.302
ATGGTTTA | 0.261
GCAGGAAC | -0.303
CTATGACA | -0.109
ATACATGC | 0.172
CGCGTTCA | -0.0736
CATGCCGG | -0.161
GTACAACA | 0.176
GTACACAA | 0.00256
AACAGAAA | 0.254
ACGATGGC | -0.12
CGTCTTGA | -0.0993
AATTATCC | 0.296
ACATGGTA | -0.00482
CCACCGAA | -0.15
ATTCATGA | 0.148
ATCAAAGG | -0.0951
ATGAGACC | -0.178
CAAGGGCA | -0.18
ACGCCATC | -0.248
GCGGGCCA | -0.32
ATGGCCAA | 0.00263
GTGTAATA | 0.342

Sequence | PBM 8-mer E-score
TACATTAA | 0.38
AGATTTAG | -0.00309
CTCTTGTC | -0.162
GAATAGTA | 0.229
CGTATCCA | -0.0187
GAAATGTC | 0.0435
AAGATTGA | 0.0199
AGTAAATC | 0.0898
GGATAAGA | 0.0379
AACACGCC | -0.0824
CACTCCCG | -0.258
CGGACAAG | -0.281
CAAACCCA | 0.0185
GAGCGACC | -0.23
CTAAGAAG | -0.123
ATCGTCAA | 0.0361
CACCTTAG | -0.171
ATCGTTGA | -0.102
AGCATTAG | -0.0543

Reference: the supplement of paper PMC4466236
